# Test results: the supplement of paper PMC4604168 (melanoma cell lines)
# Some of the results follow. Most values come without repeats; read them as rough.
# What was measured:
# Assay in all cases: cell count relative to DMSO control; melanoma cells; higher = more viable cells
# Details in all cases: library dose: low library concentration; 72 h
# COLO792 = test system: COLO792
# COLO800 = test system: COLO800
# COLO829 = test system: COLO829
# G361 = test system: G361
# IPC-298 = test system: IPC-298
# IST-MEL1 = test system: IST-MEL1
# LB2518-MEL = test system: LB2518-MEL
# LOXIMVI = test system: LOXIMVI
# MEL-HO = test system: MEL-HO
# MZ2-MEL = test system: MZ2-MEL
# 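Further: cell number obtained by counting DAPI-stained nuclei in high-throughput microscope images with image analysis software, screen run in 1,536-well plates.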
SMILES,cell count (COLO792) [%],cell count (COLO800) [%],cell count (COLO829) [%],cell count (G361) [%],cell count (IPC-298) [%],cell count (IST-MEL1) [%],cell count (LB2518-MEL) [%],cell count (LOXIMVI) [%],cell count (MEL-HO) [%],cell count (MZ2-MEL) [%]
"O=S(=O)(c1ccccc1)N(CC(F)(F)F)c1ccc(C(O)(C(F)(F)F)C(F)(F)F)cc1 + COc1cc2ncnc(Nc3ccc(Oc4ccccc4)cc3)c2cc1OC [SrcI1] (first compound 1.4 µM, partner dose 2 µM)",103,117,89.9,103,93.8,104,121,100,110,103
"c1cc(-c2cnn3cc(-c4ccc(OCCN5CCCCC5)cc4)cnc23)ccn1 [Dorsomorphin] + COc1cc(N2CCC(N3CCN(C)CC3)CC2)ccc1Nc1ncc(Cl)c(Nc2ccccc2S(=O)(=O)C(C)C)n1 [NVP-TAE684] (first compound 0.4 µM, partner dose 0.08 µM)",101,60.6,111,80.8,99.5,109,103,109,91.6,103
"Oc1cc(-c2nc(-c3ccccc3)[nH]c2-c2ccncc2)ccc1Cl + O=C(O)C(=O)Nc1sc2c(c1C(=O)O)CCNC2 [TCS401] (first compound 0.2 µM, partner dose 1.66667 µM)",90.2,87.1,101,96.1,93.6,97.7,90.1,150,93.9,87.3
"COC(=O)c1sccc1S(=O)(=O)Nc1ccc(Nc2ccccc2)cc1OC + c1cc(-c2cnn3cc(-c4ccc(OCCN5CCCCC5)cc4)cnc23)ccn1 [Dorsomorphin] (first compound 1 µM, partner dose 0.4 µM)",93.4,126,103,92.2,105,104,108,107,106,89.6
"O=c1cc(-c2cccc3c2Sc2ccccc2S3)oc(N2CCOCC2)c1 + CC(C)CCN1c2nc(Nc3cc(F)c(O)c(F)c3)ncc2N(C)C(=O)C1C [BID1870] (first compound 1 µM, partner dose 0.2 µM)",91.2,102,101,98.7,91,95.1,121,126,96,94.7
"Oc1nc(-c2ccc(C(F)(F)F)cc2)nc2c1CSCC2 + O=c1cc(-c2cccc3c2Sc2ccccc2S3)oc(N2CCOCC2)c1 [KU55933] (first compound 2 µM, partner dose 1 µM)",84,109,119,89,95.2,101,122,131,99.3,98.7
"c1cc(-c2cnn3cc(-c4ccc(OCCN5CCCCC5)cc4)cnc23)ccn1 [Dorsomorphin] + CC(C)CCN1c2nc(Nc3cc(F)c(O)c(F)c3)ncc2N(C)C(=O)C1C [BID1870] (first compound 0.4 µM, partner dose 0.2 µM)",93.2,104,111,91.4,101,98.6,108,80.9,110,95.1
"Oc1cc(-c2nc(-c3ccccc3)[nH]c2-c2ccncc2)ccc1Cl + O=C1NC(=O)/C(=C/c2ccc(-c3ccc(F)cc3O)o2)S1 [AS252424] (first compound 0.2 µM, partner dose 1 µM)",111,87.3,99,77.2,94.5,96.7,103,112,92.3,90.1
"COc1ccc2c(c1)CCC1C2CCC2(C)C(NCCCCCCN3C(=O)C=CC3=O)CCC12 (stereo not drawn) + Cc1cc([N+](=O)[O-])ccc1NS(=O)(=O)c1cc(Cl)ccc1Cl [FH535] (first compound 0.4 µM, partner dose 1 µM)",86.6,109,86.9,72.9,94.7,96.9,107,81.1,73.1,88.9
"COc1ccc(-c2ccc3c(N4CCOCC4)nc(N4C[C@@H](C)O[C@@H](C)C4)nc3n2)cc1CO + COc1cc(N2CCC(N3CCN(C)CC3)CC2)ccc1Nc1ncc(Cl)c(Nc2ccccc2S(=O)(=O)C(C)C)n1 [NVP-TAE684] (first compound 0.02 µM, partner dose 0.08 µM)",88.7,106,94.6,89.6,103,96,94.8,112,69.6,90.3
"c1cc(-c2cnn3cc(-c4ccc(OCCN5CCCCC5)cc4)cnc23)ccn1 [Dorsomorphin] + CCCCCCCCCCCC1=C(O)C(=O)C=C(O)C1=O [Embelin] (first compound 0.4 µM, partner dose 1.2 µM)",89,130,112,94.8,94.5,102,,91.7,93,
"COc1cc2ncnc(Nc3ccc(Oc4ccccc4)cc3)c2cc1OC + Cn1cc(/C=C2\C(=O)Nc3cccnc32)c2ccccc21 [GW441756] (first compound 2 µM, partner dose 0.4 µM)",77.5,109,94.7,92.1,93.8,98.3,145,119,97.8,82.5
"COc1ccc2c(c1)CCC1C2CCC2(C)C(NCCCCCCN3C(=O)C=CC3=O)CCC12 (stereo not drawn) + Oc1nc(-c2ccc(C(F)(F)F)cc2)nc2c1CSCC2 [XAV939] (first compound 0.4 µM, partner dose 2 µM)",79.5,123,102,89.5,102,111,98.7,69.1,101,93.2
"COC(=O)c1sccc1S(=O)(=O)Nc1ccc(Nc2ccccc2)cc1OC + CCN(CC)CCCCNc1ncc2cc(-c3cc(OC)cc(OC)c3)c(NC(=O)NC(C)(C)C)nc2n1 [PD173074] (first compound 1 µM, partner dose 0.1 µM)",94.7,96.2,113,100,94.2,96,104,151,79.3,91.8
"COC(=O)c1sccc1S(=O)(=O)Nc1ccc(Nc2ccccc2)cc1OC + Oc1cc(-c2nc(-c3ccccc3)[nH]c2-c2ccncc2)ccc1Cl [L779450] (first compound 1 µM, partner dose 0.2 µM)",116,61,124,86,78.1,102,,144,102,
"COc1ccc(COc2ccc(Cc3cnc(N)nc3N)cc2OC)cc1 + O=C1NC(=O)/C(=C/c2ccc(-c3ccc(F)cc3O)o2)S1 [AS252424] (first compound 1 µM, partner dose 1 µM)",103,103,87.9,87,98.3,95.6,83.8,99.3,98.4,108
"O=C(O)C(=O)Nc1sc2c(c1C(=O)O)CCNC2 + O=c1cc(-c2cccc3c2Sc2ccccc2S3)oc(N2CCOCC2)c1 [KU55933] (first compound 1.66667 µM, partner dose 1 µM)",110,142,86.5,105,98.5,115,117,176,105,102
"COc1ccc2c(c1)CCC1C2CCC2(C)C(NCCCCCCN3C(=O)C=CC3=O)CCC12 (stereo not drawn) + COc1cc(N2CCC(N3CCN(C)CC3)CC2)ccc1Nc1ncc(Cl)c(Nc2ccccc2S(=O)(=O)C(C)C)n1 [NVP-TAE684] (first compound 0.4 µM, partner dose 0.08 µM)",97.8,60.4,90.1,96,108,102,,88.1,103,
"CCN(CC)CCCCNc1ncc2cc(-c3cc(OC)cc(OC)c3)c(NC(=O)NC(C)(C)C)nc2n1 + COc1cc(N2CCC(N3CCN(C)CC3)CC2)ccc1Nc1ncc(Cl)c(Nc2ccccc2S(=O)(=O)C(C)C)n1 [NVP-TAE684] (first compound 0.1 µM, partner dose 0.08 µM)",108,84.4,96.6,86.3,105,102,,127,89.4,
"Oc1cc(-c2nc(-c3ccccc3)[nH]c2-c2ccncc2)ccc1Cl + Cn1cc(/C=C2\C(=O)Nc3cccnc32)c2ccccc21 [GW441756] (first compound 0.2 µM, partner dose 0.4 µM)",104,80.5,101,92.8,108,89.1,112,107,86,90.9
"N#Cc1c(O)c2c(-c3ccc(-c4ccccc4O)cc3)csc2[nH]c1=O + COc1cc(N2CCC(N3CCN(C)CC3)CC2)ccc1Nc1ncc(Cl)c(Nc2ccccc2S(=O)(=O)C(C)C)n1 [NVP-TAE684] (first compound 2 µM, partner dose 0.08 µM)",89.3,85,93.7,102,98.8,102,106,112,101,93.1
"N#Cc1c(O)c2c(-c3ccc(-c4ccccc4O)cc3)csc2[nH]c1=O + O=C(O)C(=O)Nc1sc2c(c1C(=O)O)CCNC2 [TCS401] (first compound 2 µM, partner dose 1.66667 µM)",95,88,70.6,97.5,99.4,106,119,92.8,94.8,98.9
"COc1ccc(COc2ccc(Cc3cnc(N)nc3N)cc2OC)cc1 + O=S(=O)(c1ccccc1)N(CC(F)(F)F)c1ccc(C(O)(C(F)(F)F)C(F)(F)F)cc1 [T0901317] (first compound 1 µM, partner dose 1.4 µM)",120,92.3,102,99.9,93.5,105,97.4,98,95.9,95.8
"COC(=O)c1sccc1S(=O)(=O)Nc1ccc(Nc2ccccc2)cc1OC + COc1ccc(-c2ccc3c(N4CCOCC4)nc(N4C[C@@H](C)O[C@@H](C)C4)nc3n2)cc1CO [KU0063794] (first compound 1 µM, partner dose 0.02 µM)",97,142,98.3,96.4,92,95.4,,126,104,
"COc1cc2ncnc(Nc3ccc(Oc4ccccc4)cc3)c2cc1OC + Oc1cc(-c2nc(-c3ccccc3)[nH]c2-c2ccncc2)ccc1Cl [L779450] (first compound 2 µM, partner dose 0.2 µM)",102,139,100,97.8,81.1,99.9,93.3,111,112,79.5
"N#Cc1c(O)c2c(-c3ccc(-c4ccccc4O)cc3)csc2[nH]c1=O + O=S(=O)(c1ccccc1)N(CC(F)(F)F)c1ccc(C(O)(C(F)(F)F)C(F)(F)F)cc1 [T0901317] (first compound 2 µM, partner dose 1.4 µM)",96.1,66.5,85.4,83.9,90.6,93.8,,92.5,98.3,
